± gives the standard deviation of the averaged measurements. The list shows a part of the results.
System: PfAP2-LT AP2 domain (GST-tagged)
Assay: gcPBM binding intensity (ln(normalized median fluorescence intensity)); higher = stronger DNA binding
How it was run: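 Plasmodium falciparum DNA-binding domains carrying a GST tag were expressed in E. coli and applied for 1 h, at about 25 μg on average, to an Agilent 4 × 180k array. The array held primer-extended double-stranded 36-bp intergenic genomic probes together with negative controls, and binding took place in 1× PBS with 1% milk, 0.2 mg/ml BSA, 0.5% salmon testes DNA and 0.03% Triton X-100. An Alexa488 anti-GST antibody detected bound protein, and the array was scanned at 488 nm. Binding intensity is taken as the highest Masliner-normalised natural-log median intensity across replicate spots of either probe orientation.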

Sequence | gcPBM binding intensity (ln)
TTTTAATAATTTATAAAAAAAAAAAAAAAATAAATA [TGCATGCA_negctrl_site419] | 8.12 ± 0.5
TTTAATGAAAGAAACACATACGTATCAAAATATATG [TGCATGCA_negctrl_site510] | 8.66 ± 0.47
TACGTTGTATATTTTTGTACATATTGAATTACAAAA [XGTACX_site5906] | 8.52 ± 0.35
TTCATATGGAATAAAAGTACGTATTAAAACAATTTT [XGTACX_site8742] | 8.63 ± 0.36
GAACAATATATTTGCACACAAAAAATATATATTTAT [CACACA_site3317] | 9.24 ± 0.44
GTTTACATCATTCTGGTGCAAAAAAAAAAAAAAATA | 8.47 ± 0.57
GGATAAAAAATATGTACACACATATAGATATCTATA [CACACA_site2693] | 9.04 ± 0.38
ATACAAGTATTAATTACACACTCAAAAAGAAAAAAC [CACACA_site5287] | 8.95 ± 0.48
TAGATTTAAAAAAAAAAAAAATTTTTTTTTTTTTTT [TGCATGCA_negctrl_site593] | 8.06 ± 0.23
GAATACTCATTTCTTTGTACATATATATGTGTATTT [XGTACX_site6411] | 9.11 ± 0.48
AAAGCAAATAATAAGTGTACGGGTCAATATATGCGT [XGTACX_site1519] | 9.22 ± 0.47
CATATAAACAATAACACACACCTAGGTACATGGAAA [CACACA_site4615] | 9.47 ± 0.28
CTTTTTAATTTATCGACACACGCATGAATAGAAATT [CACACA_site9112] | 8.7 ± 0.4
AAAAAAAAAAAAGAACGTACAAATTAATTTATAGAA [XGTACX_site5584] | 8.73 ± 0.57
AATATTAAAATAAAAAGTACTTATTTATGTATGTTG [XGTACX_site2682] | 8.6 ± 0.46
TGTATAATATTTGGTGCACACAAATTAACAACTGTT [CACACA_site9245] | 9.23 ± 0.41
TTTATATAACAACAAAATGGAAATATATATGTATGT [TGCATGCA_negctrl_site98] | 8.68 ± 0.35
TACACAAATATATACATACACACATATATACGCATA [CACACA_site394] | 9.27 ± 0.3
TAATATTGACTATATACACACATATATATATATATA [CACACA_site575] | 9.54 ± 0.29

Sequence | gcPBM binding intensity (ln)
CAGACATATTAAAAGAGTACATATATATATATATAT [XGTACX_site1158] | 9.98 ± 0.29
TGTTTATTACTCAGGTGTACTCAATTTTTTTTTTTT [XGTACX_site3470] | 8.72 ± 0.47
TATTTTTAAAATATAAGTAAAAAAATAATATAAACT [TGCATGCA_negctrl_site283] | 8.41 ± 0.49
ATATATATATATATATGTACATATACATATGTGCAA [XGTACX_site5604] | 9.615 ± 0.05
AAATGAATAAATAGGTCACACACAAATATATATAAA [CACACA_site8764] | 9.46 ± 0.54
ATTTATTTTATTTTCACACACAAAAATAAATATCCG [CACACA_site2414] | 9.17 ± 0.45
TAAATAATATCTATCACACACGCATAAATACAGATA [CACACA_site5449] | 9.22 ± 0.41
ATAAAAAAAAAAAAAAGTACACATATAAAAGTATTG [XGTACX_site8265] | 8.72 ± 0.49
TATAATGTATGTAGTGCACACCTCTATAATATATTA [CACACA_site8560] | 8.87 ± 0.4
ATTCTACCACGCGATATACACACTTGTAGACATCTT [CACACA_site188] | 9.2 ± 0.35
CGCAATTAAAATATGTGTCCTCATTTTATAACATTT [XGTACX_site5340] | 8.67 ± 0.47
AAATTTATGTGTGCCTGTACATATCAAAGATTTAAG [XGTACX_site8547] | 8.9 ± 0.24
TAATTTCTTAGGTATTGTACAAATATTATATGATAT [XGTACX_site256] | 8.64 ± 0.48
ATATATCTATAAAAGGCTTCCCACTTTTTTTGTCAA [TGCATGCA_negctrl_site332] | 8.56 ± 0.49
ATAATAAAAAAAATTAGTACATATATAAATATAAAT [XGTACX_site1937] | 8.64 ± 0.58
AGTACATTTTTGTGTGTGCACTAATATTATATACTT [GTGCAC_site9568] | 9.37 ± 0.43
GACATAGTCATATACTGTACTTTATATTATTGTGTA [XGTACX_site6636] | 8.8 ± 0.38
TTTTTTTTCATTGGTTGTACAATATTTATAATTCAC [XGTACX_site7036] | 8.82 ± 0.54
TACAGATATAAACACACACACATATATATATATATA [CACACA_site4846] | 10.05 ± 0.092

Sequence | gcPBM binding intensity (ln)
TTTTTTTTTTTTTTTTGTACTTATAAAAAATTTTTT [XGTACX_site1249] | 8.21 ± 0.57
AATCCCCACTTGTCAAGTACATATATCATGGATGAA [XGTACX_site3486] | 8.82 ± 0.28
GCCAAAATCTAATTTACACACTTATTAAATAATTAC [CACACA_site6251] | 8.69 ± 0.4
TATTTATAACAAAGGTTAAATTAAAACTAATCCACA [TGCATGCA_negctrl_site3] | 8.4 ± 0.3
TATATTAAAAAAGAGGTGCATTCGTAAGAGGTTAAA [GTGCAC_site9720] | 8.73 ± 0.46
TTTGTTAATATAAAAACACACAAAAATAACATAAAA [CACACA_site2619] | 8.73 ± 0.42
ATGTAATATTTACAACGTACAAATTATAAACATATT [XGTACX_site603] | 8.88 ± 0.35
TCATATTGGCTGTTCTGTACTTATAAGTTTTAAAGA [XGTACX_site5593] | 8.68 ± 0.35
AAAAAATTCATATATACACACACGCACATATATATA [CACACA_site4226] | 9.53 ± 0.13
GAATATATAAGATACACACACAAATTAAATATAAAA [CACACA_site2781] | 9.31 ± 0.3
AAAATATTTCATATATGTACTTAAAAAAAAAAAAAA [XGTACX_site5399] | 8.34 ± 0.43
TATTATATATATGTTGACATATTTGTACACTCCACT [TGCATGCA_negctrl_site200] | 9.08 ± 0.45
AAAAAAAAAAAAAACACACACACACGCATAAATATA [CACACA_site6217] | 9.95 ± 0.28
CACTTTTCTGGAAAAATTCCCACATTTTTTTATTAA [GTGCAC_negctrl_site322] | 8.42 ± 0.47
GTACAAAAAAAAATAAAATACATATATATATATATA [GTGCAC_negctrl_site364] | 9.56 ± 0.14
AAAAAAAAGTTGTATTGTACAAAAAAAAAAAAAAAA [XGTACX_site8334] | 8.62 ± 0.62
TCATAAAAACTAATACGTACTTAAAAATATGAACTT [XGTACX_site2939] | 8.67 ± 0.42
TCTTCATATAAGAACACATGCAGATTTTTATTATTG [TGCATGCA_site682] | 8.64 ± 0.4
